Residue numbers refer to the chain shown, from its start. In names and notes the source's numbering stands.
T1: human CSPG5 (human, UniProt O95196 31-566)
T1 construct: Full-length gene expressed on cell membrane (Expi293F, L929); also called human CSPG5/Expi293F cells; human CSPG5/L929#09
T1 sequence: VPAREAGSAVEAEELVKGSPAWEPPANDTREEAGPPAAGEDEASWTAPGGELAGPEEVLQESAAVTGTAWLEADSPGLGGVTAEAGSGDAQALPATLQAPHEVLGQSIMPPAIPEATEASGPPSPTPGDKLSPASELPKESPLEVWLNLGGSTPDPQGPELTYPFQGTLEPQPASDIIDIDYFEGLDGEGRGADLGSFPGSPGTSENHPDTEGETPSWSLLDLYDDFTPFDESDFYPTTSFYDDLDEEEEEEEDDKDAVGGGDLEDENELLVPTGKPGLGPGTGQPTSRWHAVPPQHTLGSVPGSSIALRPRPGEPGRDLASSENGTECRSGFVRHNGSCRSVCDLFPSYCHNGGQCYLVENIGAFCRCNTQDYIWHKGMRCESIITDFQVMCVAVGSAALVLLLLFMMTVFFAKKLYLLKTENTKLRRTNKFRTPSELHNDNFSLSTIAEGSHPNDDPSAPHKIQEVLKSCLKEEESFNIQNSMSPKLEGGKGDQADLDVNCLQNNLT

T2: monkey CSPG5 (monkey (rhesus monkey), UniProt O95196 31-566 (human entry))
T2 construct: Full-length gene expressed on Expi293F cells; also called monkey CSPG5/Expi293F cells; rhesus monkey CSPG5
T2 chain: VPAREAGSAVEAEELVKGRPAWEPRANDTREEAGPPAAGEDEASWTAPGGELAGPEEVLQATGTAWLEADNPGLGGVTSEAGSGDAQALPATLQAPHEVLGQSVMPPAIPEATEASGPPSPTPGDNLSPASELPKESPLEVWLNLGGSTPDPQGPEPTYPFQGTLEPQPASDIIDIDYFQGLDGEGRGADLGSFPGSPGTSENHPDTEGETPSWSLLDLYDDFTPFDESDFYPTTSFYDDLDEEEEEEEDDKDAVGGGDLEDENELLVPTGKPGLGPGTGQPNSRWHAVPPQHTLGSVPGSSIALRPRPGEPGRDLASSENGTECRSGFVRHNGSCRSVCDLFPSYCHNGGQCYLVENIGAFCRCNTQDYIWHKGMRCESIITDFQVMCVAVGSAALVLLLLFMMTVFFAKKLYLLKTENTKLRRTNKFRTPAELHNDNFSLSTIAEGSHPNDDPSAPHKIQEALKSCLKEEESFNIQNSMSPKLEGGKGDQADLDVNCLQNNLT

T3: mouse CSPG5 (mouse, UniProt Q71M36 31-566)
T3 construct: Full-length gene expressed on Expi293F cells; also called mouse CSPG5/Expi293F cells
T3 sequence: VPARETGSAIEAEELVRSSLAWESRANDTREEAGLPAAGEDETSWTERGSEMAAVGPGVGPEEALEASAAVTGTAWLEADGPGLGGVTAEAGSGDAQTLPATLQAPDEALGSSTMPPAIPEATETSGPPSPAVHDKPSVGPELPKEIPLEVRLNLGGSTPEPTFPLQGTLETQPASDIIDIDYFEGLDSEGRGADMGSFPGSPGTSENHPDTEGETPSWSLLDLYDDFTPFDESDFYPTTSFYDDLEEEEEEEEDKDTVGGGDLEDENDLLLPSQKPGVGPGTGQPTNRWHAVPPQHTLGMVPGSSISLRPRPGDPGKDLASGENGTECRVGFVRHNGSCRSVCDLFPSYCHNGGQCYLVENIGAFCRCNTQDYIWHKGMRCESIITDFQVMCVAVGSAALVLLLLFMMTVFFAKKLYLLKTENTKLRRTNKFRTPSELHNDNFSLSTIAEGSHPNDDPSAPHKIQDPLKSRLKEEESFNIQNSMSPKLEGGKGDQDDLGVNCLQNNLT

B1: CSPG5227 scFv-hG4PE(R409K) (Fc fusion)
VH: [omitted - about 100 residues]LKRTQGFDYWGQGTLVTVSS
VL: DIVMTQSPDSLAVSLGERATINCKSSQSVLYSSNNKNYLAWYQQKPGQPPKLLIYWASTRESGVPDRFSGSGSGTDFTLTISSLQAEDVAVYYCQQSNRLPPTFGQGTKVEIK
notes: also called anti-CSPG5 scFv-Fc antibody
B2: CSPG5222 scFv-hG4PE(R409K) (Fc fusion)
VH: [omitted - about 100 residues]IKQTGAFDYWGQGTLVTVSS
VL: B1 VL with S97L, N98V, R99Q, L100G
notes: as for B1
B3: CSPG5208 scFv-hG4PE(R409K) (Fc fusion)
VH: [omitted - about 100 residues]YTREGSFDYWGQGTLVTVSS
VL: B1 VL with S97A, N98L, R99E, L100R, P101A
notes: as for B1
B4: CSPG5205 scFv-hG4PE(R409K) (Fc fusion)
VH: [omitted - about 100 residues]TKPNNAFDYWGQGTLVTVSS
VL: B1 VL with S97T, N98A, R99T, L100Q, P102L
notes: as for B1
B5: CSPG5202 scFv-hG4PE(R409K) (Fc fusion)
VH: [omitted - about 100 residues]ISKTQGFDYWGQGTLVTVSS
VL: B1 VL with N98R, R99T, L100R, P101R
notes: as for B1
B6: CSPG5202 IgG4PE(R409K) (antibody, V domains shown)
VH: [omitted - about 100 residues]ISKTQGFDYWGQGTLVTVSS
VL: DIVMTQSPDSLAVSLGERATINCKSSQSVLYSSNNKNYLAWYQQKPGQPPKLLIYWASTRESGVPDRFSGSGSGTDFTLTISSLQAEDVAVYYCQQSRTRRPTFGQGTKVEIKR
notes: variable regions of CSPG5202 on CL and CH of the human IgG4 variant (S228P, L235E, R409K); also called anti-CSPG5-IgG4 antibody; anti-CSPG5202-IgG4 antibody

These binders were tested against T1, human CSPG5 (assay: FACS, 10 µg/mL antibody, human CSPG5/Expi293F vs Expi293F).
Method: (§1) Expi293F cells, human CSPG5/Expi293F cells, mouse CSPG5/Expi293F cells, and monkey CSPG5/Expi293F cells were separately suspended in Staining Buffer (SB) of PBS comprising 0.1% NaN₃ and 1% FBS and dispensed in a round-bottom 96-well plate (manufactured by Becton, Dickinson and Company). After centrifugation (2000 rpm, 4° C., 2 minutes), the supernatant was removed, and to the resulting pellet, 10 μg/mL of each antibody obtained in Example 2 was added to suspend the pellet, and the resulting suspension was left to stand for 30 minutes at ice temperature. After further centrifugation (2000 rpm, 4° C., 2 minutes), the supernatant was removed, and the resulting pellet was washed with SB, and thereafter, 1 μg/mL of an RPE fluorescently labeled goat anti-human antibody (manufactured by Southern Biotech, Inc.) was added thereto, and the resultant was incubated for 30 minutes at ice temperature. After washing with SB, the cells were suspended in SB, and the fluorescence intensity of each cell was measured using a flow cytometer FACS CANTO II (manufactured by Becton, Dickinson and Company). Note that as a negative control, 10 μg/mL of the anti-AVM antibody was used.
(§2) The detection results were analyzed, and a mean fluorescence intensity (MFI) was calculated using a geometric mean. Further, with respect to the MFI when the concentration of each antibody was 10 μg/mL, the ratio of the MFI (mean fluorescence intensity ratio) between the human CSPG5/Expi293F cells and the Expi293F cells (parent cell line) was calculated. Also for the monkey CSPG5/Expi293F cells and the mouse CSPG5/Expi293F cells, the mean fluorescence intensity ratio relative to the Expi293F cells (parent cell line) was calculated by the same procedure, and the results are shown in Table 3.

Mean fluorescence intensity ratio	Binder
5.29 ratio to parent cell line	B1
2.52 ratio to parent cell line	B2
16.9 ratio to parent cell line	B3
28.5 ratio to parent cell line	B4
6.16 ratio to parent cell line	B5

Biological target: T2, monkey CSPG5
Test: FACS, 10 µg/mL antibody, monkey CSPG5/Expi293F vs Expi293F
Method: as §1, §2

Mean fluorescence intensity ratio	Binder
4.09 ratio to parent cell line	B1
2.82 ratio to parent cell line	B2
6.96 ratio to parent cell line	B3
9.58 ratio to parent cell line	B4
3.69 ratio to parent cell line	B5

These binders were tested against mouse CSPG5-GST (mouse) (assay: SPR Biacore T-100, antibody captured, mouse CSPG5-GST analyte).
Method: The affinity of the anti-CSPG5 antibodies, the CSPG5202 IgG4PE(R409K), and the AVM IgG4PE(R409K) CSPG5202 dscFv produced in Example 2 for human CSPG5 and mouse CSPG5 was measured using Biacore T-100 (GE Healthcare).
Each of the antibodies was immobilized on a […] sensor chip using a Human antibody Capture kit, and the binding ability was evaluated using human CSPG5-GST and mouse CSPG5-GST produced in Example 4 as analytes. The obtained sensorgram was analyzed with BIA evaluation software, and the dissociation constant (KD value) was calculated.

Kd	Binder
≤ 10 nM	B1
≤ 10 nM	B6
≤ 10 nM	B2
≤ 10 nM	B3
≤ 10 nM	B4
≤ 10 nM	B5

Each binder was assayed against T3, mouse CSPG5 (assay: FACS, 10 µg/mL antibody, mouse CSPG5/Expi293F vs Expi293F).
Method: as §1, §2

Mean fluorescence intensity ratio	Binder
10 ratio to parent cell line	B1
2.94 ratio to parent cell line	B2
16.6 ratio to parent cell line	B3
30.1 ratio to parent cell line	B4
5.39 ratio to parent cell line	B5

Reference: US20210269548A1 (Kyowa Kirin, published 2021)
